Laboratory results: the RNAGym collection of RNA variant scans (doi:10.1073/pnas.2313332121)
This sample is rich in variants without activity.

B1: TPR 5TU (parent)
chain: GGAUCUUCUCGAUCUAACAAAAAAGACAAAUCUGCCACAAAGCUUGAGAGCAUCUUCGGAUGCAGAGGCGGCAGCCUUCGGUGGCGCGAUAGCGCCAACGUUCUCAACUAUGACACGCAAAACGCGUGCUCCGUUGAAUGGAGUUUAUCAUG

Variants of: B1
Assay: polymerase ribozyme fitness, log enrichment relative to wild type (log ratio); higher = more active; in vitro selection for triplet polymerase activity
In short: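 A single round of triplicate in vitro selection, including frozen incubation at −7 °C, was applied to PCR-built, transcribed mutant libraries of each subunit of a heterodimeric triplet polymerase ribozyme. Illumina sequencing of input and output libraries retained genotypes with ≥10 input reads and ≥1 read per output. Fitness is the base-2 logarithm of genotype enrichment divided by wild-type enrichment, from inverse-variance-weighted replicate averages.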

Row | Variant | polymerase ribozyme fitness (log ratio)
1 | C10G C95U | -3.16
2 | C10G C96G A107G G152U | ≤ -4.2
3 | C10G C96G C103U | ≤ -4.2
4 | C10G C149G | ≤ -4.2
5 | C10G G11A A22U A26G C38U A49C G50A G92A A147G | ≤ -4.2
6 | C10G G11A A29U A47C A52C G58C C72U C79A G81U C85A U109G | ≤ -4.2
7 | C10G G11A C35G U44G A52U G88A C96U | ≤ -4.2
8 | C10G G11U G71U C93G A138G | ≤ -4.2
9 | C10G G25C A41U U77C C85A C99U G140U | ≤ -4.2
10 | C10G G25U U31C C38U C63G C93G C108U | ≤ -4.2
11 | C10G G42A A52U G94A A97U A120G C129G | ≤ -4.2
12 | C10G G42C G50A C69U G86C C99U U145G | ≤ -4.2
13 | C10G G48A | ≤ -4.2
14 | C10G G48A U82A A91G C95G A97C A137U | ≤ -4.2
15 | C10G G50A C57A C96U U109C | ≤ -4.2
16 | C10G G50U C54U U77C C95U A107G G141A U144A | ≤ -4.2
17 | C10G G58U C69A C85U C132G G133C G141C | ≤ -4.2
18 | C10G G68C G83U A107C | ≤ -4.2
19 | C10G G70C C87A G140U | ≤ -4.2
20 | C10G G74A A97U U111G | ≤ -4.2
21 | C10G G81A G141A G152A | ≤ -4.2

Row | Variant | polymerase ribozyme fitness (log ratio)
22 | C10G G92A G152C | ≤ -4.2
23 | C10G G94A A119U | ≤ -4.2
24 | C10G U15C A17U A19G A29C A40U C93G C103G | ≤ -4.2
25 | C10G U15G A26C C54A G88C C108U A137U G140C U146C | ≤ -4.2
26 | C10G U31A A39U U55A C93U G141U | ≤ -4.2
27 | C10G U31A C76G G84U G117U G141U A150G | ≤ -4.2
28 | C10G U31C A98G U151A | ≤ -4.2
29 | C10G U33A C35U U55G C57U C85U C87U A142C | ≤ -4.2
30 | C10G U44A C95A A97U C132A U139G U144C | ≤ -4.2
31 | C10G U44G G58U G80U C87A U127G U144C | ≤ -4.2
32 | C10G U53G U90C C123G | ≤ -4.2
33 | C10G U55A G80U | ≤ -4.2
34 | C10G U55A U77A G92C C95A G143U U144G | ≤ -4.2
35 | C10G U55G C75G C76G G84U C118A U139C | ≤ -4.2
36 | C10G U55G C75U A91G | ≤ -4.2
37 | C10G U55G U56A A73G G94A | ≤ -4.2
38 | C10G U56A G58U U61G G62A G92U C123U | ≤ -4.2
39 | C10G U56G C85U A106G U109C G143A | ≤ -4.2
40 | C10G U61A C93A U139A | ≤ -4.2
41 | C10G U61C G86C C105G A119C | ≤ -4.2
42 | C10G U77C C118G C125A U146G | ≤ -4.2

Row | Variant | polymerase ribozyme fitness (log ratio)
43 | C10G U144C | -3.87
44 | C10G U146G | -4.19
45 | C10U | -2.16
46 | C10U A12C G34A G92C | -4.16
47 | C10U A12C U15C A40U G70U C72U C75A C76U C93U A98U C118G C149A | ≤ -4.2
48 | C10U A12G C36A C57G C93G | ≤ -4.2
49 | C10U A12U A19G A37G U44G U55A A150G | ≤ -4.2
50 | C10U A12U A20C G48C G83A A89G C95A G133U | ≤ -4.2
51 | C10U A12U C14U A29U G48U G50A C54U A64G G84C U109G | ≤ -4.2
52 | C10U A12U C43A G50A G59C C93G C116A | ≤ -4.2
53 | C10U A16C U44G C79A G84A U111G | ≤ -4.2
54 | C10U A16G A29C C51G U56G C57A G70U C85G | ≤ -4.2
55 | C10U A17C A21C C51U C85A C99U A119C | ≤ -4.2
56 | C10U A17C A39U G92A U139G | ≤ -4.2
57 | C10U A17C C38U G58C C96G | -3.69
58 | C10U A17C U31A A64G A122U U145G | ≤ -4.2
59 | C10U A17G G42A C105U U109G G133A U134C | ≤ -4.2
60 | C10U A17U C75U C93U | ≤ -4.2
61 | C10U A19U A60C G86A A91C A97U U130G G136C U146C | ≤ -4.2
62 | C10U A20C A28U G84A U111A | ≤ -4.2
63 | C10U A20U A22C A39U A52C U55A C69A A142G | ≤ -4.2

Row | Variant | polymerase ribozyme fitness (log ratio)
64 | C10U A20U C43G G46A A47C G58A C79U | ≤ -4.2
65 | C10U A20U C57A U145C | -3.45
66 | C10U A21U A28U A40U U56C G70C U102A | ≤ -4.2
67 | C10U A21U A29U A52C U53A A64G G65A G81A A97U C99U A107G U139C A142U | ≤ -4.2
68 | C10U A22C A28U A39C G81A U90G C93G A122U | ≤ -4.2
69 | C10U A22C A29G | ≤ -4.2
70 | C10U A22C A60G C87U G88U | ≤ -4.2
71 | C10U A22U A28U U55G G68C U101C | ≤ -4.2
72 | C10U A22U A29G U61A C95G G133U G136C | ≤ -4.2
73 | C10U A23U A39U G86A G92A C105G A142U | ≤ -4.2
74 | C10U A23U G80C C87G A107G G124C | ≤ -4.2
75 | C10U A23U U33G C96G A115C | ≤ -4.2
76 | C10U A24G G50U C76A | ≤ -4.2
77 | C10U A24U A29C G68C C79A C96A | ≤ -4.2
78 | C10U A26U G42A A47U A89C C96U A107U G112C | ≤ -4.2
79 | C10U A29C G59C C125U G140U | ≤ -4.2
80 | C10U A29G A47C U55G A60U C95U U144A U146G | ≤ -4.2
81 | C10U A29U G42C U44C U139C | ≤ -4.2
82 | C10U A30C A40C G74C U77A G92A C125A U151C | ≤ -4.2
83 | C10U A37C C76U G86C C103G U139C | ≤ -4.2
84 | C10U A39G C54G C63A G70C C93U G141A | ≤ -4.2
